Laboratory results reported in PubChem BioAssay AID588579 (National Center for Advancing Translational Sciences (NCATS), 2011).
Screen size: about 400,000 compounds; about 2,200 (0.55%) were called active. Inconclusive results (about 1%) are left out. The call rests on the fitted dose curve; in most records, active means well fitted inhibition curve with a large enough effect; inconclusive means small, poorly fitted or top-dose-only effect, or another doubt; inactive means no such curve, though single readings can be large or run the other way. The entries are a selection whose mix differs from that of the whole data set. The source holds several records for some structures; these can differ, active in one and inactive in another. Residues, ends and D or L forms follow the SMILES beside them.

What follows are compounds tested against DNA polymerase kappa (Homo sapiens) (UniProt Q9UBT6) (assay: qHTS for Inhibitors of Polymerase Kappa). Settings: purified Pol kappa, fluorescent DNA synthesis assay, 10 min; series mostly up to 107 µM; activity, negative = inhibition: at the top concentration.
Method in brief: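 Inhibition of 10 nM Pol kappa is measured by a fluorescent read-out at 0 and 10 min following addition of 50 nM substrate (final), with a 15-min room-temperature compound preincubation.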
On the % scale 0 is the no-effect control and ±100 the full control effect; potency means the concentration at half of the fitted maximal effect.

Sequence of UniProt Q9UBT6 (Q9UBT6 whole entry, looked up): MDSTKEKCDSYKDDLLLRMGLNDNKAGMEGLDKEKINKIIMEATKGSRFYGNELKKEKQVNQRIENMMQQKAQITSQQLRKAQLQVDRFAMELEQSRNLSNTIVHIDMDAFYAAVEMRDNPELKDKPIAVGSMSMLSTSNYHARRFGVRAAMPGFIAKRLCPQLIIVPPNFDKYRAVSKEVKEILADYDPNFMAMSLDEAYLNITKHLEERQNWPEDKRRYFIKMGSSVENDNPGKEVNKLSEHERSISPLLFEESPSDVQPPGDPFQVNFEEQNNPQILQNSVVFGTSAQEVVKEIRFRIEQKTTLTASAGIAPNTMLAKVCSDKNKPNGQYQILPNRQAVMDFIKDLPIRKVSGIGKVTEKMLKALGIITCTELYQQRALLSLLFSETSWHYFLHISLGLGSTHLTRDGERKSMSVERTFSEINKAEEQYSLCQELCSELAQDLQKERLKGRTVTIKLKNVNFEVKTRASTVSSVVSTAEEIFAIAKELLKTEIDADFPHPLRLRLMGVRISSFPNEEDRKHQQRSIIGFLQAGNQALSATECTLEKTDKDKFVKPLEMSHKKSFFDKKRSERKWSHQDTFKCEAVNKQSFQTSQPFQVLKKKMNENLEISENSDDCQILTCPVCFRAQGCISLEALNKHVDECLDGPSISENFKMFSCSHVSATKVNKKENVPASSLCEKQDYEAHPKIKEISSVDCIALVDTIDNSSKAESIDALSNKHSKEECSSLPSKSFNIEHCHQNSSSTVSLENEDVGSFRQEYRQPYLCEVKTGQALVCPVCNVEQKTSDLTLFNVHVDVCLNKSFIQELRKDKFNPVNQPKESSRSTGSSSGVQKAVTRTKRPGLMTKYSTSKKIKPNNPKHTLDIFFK

Compound	Potency	activity, negative = inhibition
COc1ccc(NC(=O)CN(C)C(=O)c2cc3c(s2)CCC3)cc1	active: 10 µM	
CCCCCCCCCCCCCCCCCCc1ccc(C(=O)/C=C/C(=O)O)cc1		inactive: -1.32% [at 19.4 µM]
COc1ccc(-c2ccccc2[C@H]2[C@@H]3C=CC[C@@H](C)[C@@H]3C(=O)N2Cc2ccccc2)cc1		inactive: -20%
O=C(/C=C/c1ccc(O)cc1)c1ccc(O)cc1O	inactive	
COc1ccc(N=C2NC(=O)/C(=C/c3ccco3)S2)cc1		inactive: -20.2%
CC(/C=N/NC(=O)c1nnn(-c2nonc2N)c1CN(C)C)=C\c1ccco1	active: 79.4 µM	
CC1CCC(C(C)C)C(P(=O)(c2ccccc2)c2ccccc2)C1 (stereo unspecified)		inactive: 16.9% [at 60.1 µM]
O=C(N/N=C/c1ccc(F)cc1)c1cc(-c2ccco2)nc2ccccc12	active: 14.1 µM	
Cc1ccc(NC(=O)CSc2nnc(-c3ccco3)c(-c3ccco3)n2)cc1	active: 39.8 µM	
CC1=C/C(=C(\c2cc(C)c(O)c(Br)c2)c2ccccc2S(=O)(=O)O)C=C(Br)C1=O		inactive: -40.9%
NS(=O)(=O)c1cc2c(cc1Cl)NC(C1CC3C=CC1C3)NS2(=O)=O (stereo unspecified)	inactive	
Cc1cc(C(=O)NCc2ccc(C(=O)O)o2)c(C)o1	active: 31.6 µM	
O=c1oc2c(O)c(O)cc3c(=O)oc4c(O)c(O)cc1c4c23		inactive: -18.1%
COC(=O)C1=CO[C@@H](C)[C@H]2CN3CCc4c([nH]c5ccccc45)[C@@H]3C[C@H]12	inactive	
O=C(O)[C@@H]1C[C@H](C(=O)O)N1		inactive: -26.4% [at 60.1 µM]
Cc1ccc2c(=O)cc(C(=O)Nc3c(C)n(C)n(-c4ccccc4)c3=O)oc2c1C		inactive: 27.5%
Ic1ccc(N2CCN(Cc3c[nH]c4ncccc34)CC2)cc1	inactive	
COC(=O)C1C(O)CC[C@@H]2CN3CCc4c([nH]c5ccccc45)C3C[C@@H]12 (stereo partly specified)	inactive	
COc1ccc(C2CC(=O)c3c(O)cc(O[C@H]4OC(COC5OC(C)C(O)C(O)[C@@H]5O)C(O)C(O)C4O)cc3O2)cc1O (stereo partly specified)		inactive: -10% [at 60.1 µM]

Compound	Potency	activity, negative = inhibition
COc1ccc(C(=O)CSc2cc(C)[nH]c(=O)n2)cc1	active: 79.4 µM	
Nc1nc2ncc(CNc3ccc(C(=O)N[C@@H](CCC(=O)O)C(=O)O)cc3)nc2c(=O)[nH]1	inactive	
O=C(O)CCN1C(=O)/C(=C/c2cn(-c3ccccc3)nc2-c2cccs2)SC1=S	active: 89.1 µM	
Cc1cc(O)c(C=O)c2c1C(=O)Oc1c(CO)c(O)c3c(c1O2)C(O)OC3=O (stereo unspecified)	active: 0.794 µM	
Cc1cc(NC(=O)Nc2ccc3c(ccn3C)c2)sn1	inactive	
O=C1OCCN1C(=O)[C@H]1[C@H](c2ccc(Cl)cc2)C(c2ccc(F)cc2)=NN1c1ccccc1		inactive: -2.6%
Cc1cccc(C2=NN(c3ccc(Br)cc3)[C@@H](C(=O)N3CCOC3=O)[C@@H]2C)c1		inactive: 0.309%
NCCCCCCCCCCNCCCN		inactive: 10.6% [at 60.1 µM]
N[C@@H](Cc1cc(I)c(Oc2ccc(O)c(I)c2)c(I)c1)C(=O)O	inactive	
COc1cc2cc3c(N)c(C(=O)Nc4sc(C)c(C)c4C#N)sc3nc2cc1OC	active: 31.6 µM	
O=C(N/N=C/c1cccc(F)c1)c1cc(-c2ccco2)nc2ccccc12	active: 17.8 µM	
O=C(O)C1CSC(c2ccco2)N1 (stereo unspecified)	active: 17.8 µM	
O=C1C=CC2=C3c4cc(O)c(O)cc4C[C@]3(O)COC2=C1	active: 7.08 µM	
O=C1C(=O)C(c2cc(O)c(O)c(O)c2)Oc2cc(O)cc(O)c21 (stereo unspecified)	active: 1.26 µM	
H-SEIQLMHNLGKHLASVERMQWLRKKLQDVHNF-OH		inactive: 17.8% [at 60.1 µM]
Cc1ccc(NC(=O)CN2C(=O)N/C(=C\c3ccco3)C2=O)cc1		inactive: -15%
CCCCCc1c2c(cc(O)c1C(=O)O)OC(=O)c1c(cc(OC)cc1C(=O)CCCC)O2		inactive: -4.26% [at 60.1 µM]
CCCN(CCC)CCCNC(=O)c1cc2c(=O)n(C)c3ccccc3c2n1C		inactive: 26.2%
O=C(O)c1ccc2c(c1)[C@@H]1C=CC[C@@H]1[C@H](c1ccccn1)N2	active: 10 µM	

Compound	Potency	activity, negative = inhibition
COCCc1ccc(OC[C@H](O)CNC(C)C)cc1		inactive: -7.31% [at 19.4 µM]
Oc1cc(O)c2c(c1)O[C@H](c1ccc(O)c(O)c1)[C@@H](O)C2		inactive: -12.2% [at 19.4 µM]
C[C@H](/C=C/[C@@]1(O)[C@H](C)C[C@H](O)CC1(C)C)O[C@@H]1O[C@H](CO)[C@@H](O)[C@H](O)[C@H]1O		inactive: 1.09%
CN(C)CCCN1c2ccccc2Sc2ccc(C(F)(F)F)cc21	inactive	
O=C(COC(=O)Cc1ccc(Cl)cc1)NCc1ccco1	active: 79.4 µM	
CC(=O)[C@]1(O)CCC2C3CC(C)C4=CC(=O)C=CC4(C)[C@@]3(F)C(O)C[C@]21C (stereo partly specified)		inactive: -0.7% [at 60.1 µM]
O=C1c2c(O)cccc2Cc2cccc(O)c21	inactive	
N=C(N)c1ccc(N=Nc2c(O)ccc3c2[nH]c2ccccc23)cc1	active: 79.4 µM	
OCCN1CCN(CC/C=C2/c3ccccc3Sc3ccc(C(F)(F)F)cc32)CC1	inactive	
O=C1CN(/N=C\c2ccc([N+](=O)[O-])o2)C(=O)N1		inactive: -17.2% [at 12 µM]
COc1cc(C(CCN2CCOCC2)c2c(OC)cc(OC)c3c2OC(=O)CC3c2ccc(N(C)C)cc2)cc(OC)c1OC (stereo unspecified)		inactive: 11%
CC(=O)NC(CC(=O)O)C(=O)NC(CCC(=O)O)C(=O)O (stereo not drawn) (Ac-Asp-Glu-OH; configuration not given here)		inactive: 0.945% [at 60.1 µM]
CS[C@@H]1SC[C@H]2C(=O)N(C)C(C(C)C)C(=O)OC[C@@H](NC(=O)c3cnc4ccccc4n3)C(=O)N[C@@H](C)C(=O)N(C)[C@H]1C(=O)N(C)C(C(C)C)C(=O)OC[C@@H](NC(=O)c1cnc3ccccc3n1)C(=O)N[C@@H](C)C(=O)N2C (stereo partly specified)	active: 21.2 µM	
COc1cc2c(Nc3ccc(NC(=O)c4ccccc4)cc3)ncnc2cc1OCCCN1CCOCC1		inactive: -5.31%
OC[C@@H]1[C@@H](c2ccc(Cl)cc2)C(c2ccccc2)=NN1c1ccccc1		inactive: -1.55%
Cc1cc(C)c(NC(=O)CN(c2ccccc2)S(=O)(=O)N(C)C)c(C)c1		inactive: -29.6%
CC(=O)OCC1=C(C(=O)O)N2C(=O)C(NC(=O)COc3ccc(F)cc3)C2SC1 (stereo unspecified)	active: 22.4 µM	
Oc1ccc(/C=C\c2cc(O)cc(O)c2)cc1		inactive: -5.29% [at 12 µM]
